Results from publication PMC4336329 (PLoS ONE, 2015).
Hit rate of the full screen: of about 310,000 compounds, about 2,200 (0.71%) showed an effect of 50% or more. The effect is printed as a negative number. The list shows a part of the results.

biological target: human ether-à-go-go-related gene (hERG) potassium channel (human, UniProt Q12809); assay: primary screen, population patch clamp on CHO cells stably expressing hERG
Sequence (Q12809 whole entry, looked up): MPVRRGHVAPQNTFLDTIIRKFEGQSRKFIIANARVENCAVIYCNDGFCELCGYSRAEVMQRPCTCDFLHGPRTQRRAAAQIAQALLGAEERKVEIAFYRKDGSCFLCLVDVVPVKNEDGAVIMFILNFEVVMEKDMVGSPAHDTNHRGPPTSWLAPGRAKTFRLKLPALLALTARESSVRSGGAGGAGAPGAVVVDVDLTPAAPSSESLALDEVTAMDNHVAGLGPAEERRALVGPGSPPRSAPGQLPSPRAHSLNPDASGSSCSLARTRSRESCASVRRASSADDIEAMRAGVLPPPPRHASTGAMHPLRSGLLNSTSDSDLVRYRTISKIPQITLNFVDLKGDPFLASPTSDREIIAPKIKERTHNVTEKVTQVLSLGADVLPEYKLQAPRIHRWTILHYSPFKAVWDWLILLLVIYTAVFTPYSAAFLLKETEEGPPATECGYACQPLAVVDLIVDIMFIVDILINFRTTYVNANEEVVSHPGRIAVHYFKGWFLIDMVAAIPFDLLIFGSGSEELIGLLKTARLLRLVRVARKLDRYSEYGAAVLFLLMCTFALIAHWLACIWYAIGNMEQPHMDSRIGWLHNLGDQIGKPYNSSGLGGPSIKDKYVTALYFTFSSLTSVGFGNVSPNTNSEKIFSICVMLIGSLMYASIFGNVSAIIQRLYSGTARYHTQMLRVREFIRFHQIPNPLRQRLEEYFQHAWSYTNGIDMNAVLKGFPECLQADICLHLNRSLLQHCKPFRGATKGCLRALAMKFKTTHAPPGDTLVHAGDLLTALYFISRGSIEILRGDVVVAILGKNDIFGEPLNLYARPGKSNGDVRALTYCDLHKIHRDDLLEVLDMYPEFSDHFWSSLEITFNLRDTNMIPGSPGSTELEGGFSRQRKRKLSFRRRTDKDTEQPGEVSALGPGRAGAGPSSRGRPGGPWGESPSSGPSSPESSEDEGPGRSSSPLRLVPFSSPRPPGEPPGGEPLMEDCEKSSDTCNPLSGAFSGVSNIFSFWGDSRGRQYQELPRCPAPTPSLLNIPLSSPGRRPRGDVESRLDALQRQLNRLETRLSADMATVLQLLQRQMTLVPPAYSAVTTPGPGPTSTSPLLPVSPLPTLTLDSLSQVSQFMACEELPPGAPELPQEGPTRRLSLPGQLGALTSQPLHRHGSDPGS

SMILES	hERG current change (%, negative = inhibition) at 1uM [%]
CCC(C)Cn1c(C(C)O)nc2ccccc21 (stereo not drawn)	1.94
CCC(OC(=O)CNS(=O)(=O)c1ccccc1)C(=O)c1ccccc1 (stereo not drawn)	11.5
CCCC(=O)c1ccc(N2CCOCC2)c(F)c1	12.9
CCOC(=O)N1CCN(C(=O)C2CCN(Cc3nc(-c4ccccc4C)oc3C)CC2)CC1	-33.8
S=C(NCCN1CCOCC1)Nc1ccc(Cl)cc1Cl	3.99
CN(CC(=O)O)Cc1nc2ccccc2[nH]1.Cl	7.9
Cl.O=C1Cc2ccccc2Sc2cc(OCCCN3CCCCC3)ccc21	-29.1
COc1ccc(-n2c(=O)[nH]cc(C(=O)Nc3ccc4c(c3)OCO4)c2=O)cc1OC	6.41
COC(=O)c1ccc(NC(=O)CS(=O)(=O)Cc2ccccc2)cc1	11.7
COc1ccc(C2C(C(=O)c3ccco3)=C(O)C(=O)N2CCOCCO)cc1OC (stereo not drawn)	7.08
CC(=O)C(=Nc1ccccc1Cl)NNc1ccc(Cl)cc1	15.8
O=C(Cc1ccc(Cl)cc1)N/N=C/c1cccs1	7.89
COc1ccc(OC)c(/C=N/NC(=O)C(O)c2ccccc2)c1 (stereo not drawn)	15.1
O=C(N/N=C/c1ccccc1[N+](=O)[O-])c1ccc2nc[nH]c2c1	13.5
CC(C)(C)NC(=O)C(=O)N/N=C/c1ccc(F)cc1	7.86
O=C(Nc1cccc(Br)c1)/C(=C\c1cccnc1)NC(=O)c1ccco1	-3.24
COc1ccc(-c2c(-c3ccsc3)oc3ccc(N4CCOCC4)cc23)cc1	4.03
N#Cc1nc(-c2ccc(OCc3ccc(Cl)cc3)cc2)oc1NCCCn1ccnc1	4.38
Cc1ccc(-n2c(Cc3cccc4ccccc34)n[nH]c2=S)c(C)c1	13.3
Cc1noc(C)c1C(=O)Nc1nc(-c2ccccc2Cl)cs1	6.32
c1cc2c(cc1-c1cnc3n1CCC3)OCCO2	-8.31
c1ccc(OCCCCN2CCCCC2)cc1	11.6
CCOc1c(Br)cc(C(=O)NCCCn2ccnc2)cc1OC	11.1

SMILES	hERG current change (%, negative = inhibition) at 1uM [%]
CC(=O)Nc1ccc(C(=O)NCCCSc2ccccc2)cc1	12.9
CC(=O)NCCNc1nc2c(-c3ccccc3)nnn2c2ccccc12	18.7
COC(=O)c1ccc(S(=O)(=O)NCc2ccc(OC)cc2)n1C	7.95
O=C(CCn1cccc1)N1CCc2ccccc21	9.61
CCN1CCN(CC(=O)c2cc(Cl)ccc2Cl)CC1	22.8
Cc1cc(C)c(-c2cc(NC(=O)COC(=O)c3ccc(CO)cc3)n(-c3ccccc3)n2)cc1C	13.5
Cl.c1ccc(CCN=C2CCCc3c2[nH]c2ccccc32)cc1	-2.01
COc1ccc(CC(=O)Nc2cccc(/C(C)=N/NC(=O)C3(C)CC3(Br)Br)c2)cc1 (stereo not drawn)	6.46
O=c1c2ccccc2c2c(O)nc(-c3ccccc3)n2n1Cc1ccccc1	14.1
COc1ccc(CN2C(=NC(=O)C3CC3)SC3CS(=O)(=O)CC32)cc1 (stereo not drawn)	9.93
CN1CCN(CCOc2ccc(Cc3ccccc3)cc2)CC1.Cl	8.96
Cc1ccccc1OCC1CNC(=O)O1 (stereo not drawn)	18.3
CCC/C=N/Nc1nc2ccccc2s1	5.89
CCOc1ccc(NC(=O)C(C)O)c(NS(=O)(=O)c2ccc(CCNC(C)=O)cc2)c1 (stereo not drawn)	13.6
Cc1c(NC(=O)CSc2nnc(N)s2)c(=O)n(-c2ccccc2)n1C	2.02
O=C(COC(=O)C1=COCCO1)NCc1ccc(Cl)cc1	6.69
CC1CCCN(C(=O)NC(=O)c2ccc(Cl)cc2)C1 (stereo not drawn)	13.3
Cc1ccc(C(C(=O)NC(C)(C)C)N(Cc2ccco2)C(=O)CCC(=O)Nc2ccccn2)cc1 (stereo not drawn)	8.68
O=C(CC1CCCC1)Nc1cc(S(=O)(=O)N2CCOCC2)ccc1O	5.82
COc1ccc(NC(=O)Cn2cc(C(C)=O)c3ccccc32)cc1	5.97
Cl.Clc1ccc(Sc2ccccn2)cc1	18.5
COc1cc(OC)cc(C(=O)N2CCC(N3CCN(c4ccccc4OC)CC3)CC2)c1.O=C(O)C(F)(F)F	-5.33
COc1ccccc1OCc1nc(C#N)c(NCc2ccco2)o1	3.38

SMILES	hERG current change (%, negative = inhibition) at 1uM [%]
Cc1ccccc1OCC(=O)Nc1ccc2c(c1)Cc1ccccc1-2	0.369
COc1cc2c(cc1OC)C(C)N(C(=O)CCc1c[nH]c3ccccc13)CC2 (stereo not drawn)	13.5
CS(=O)(=O)c1ccc(-c2nnc(NC(=O)c3ccco3)o2)cc1	20.5
CNC(=O)NC(=O)C(c1ccccc1)N(C)CC1COc2ccccc2O1 (stereo not drawn)	15.4
Cl.O=C(Nc1cccc(F)c1)[C@@H]1CCCN1	15.7
C=CCn1c(=NC(=O)c2ccc(S(=O)(=O)N3CCCC3)cc2)sc2cc(NC(C)=O)ccc21	-6.32
COc1cc(CNCCNC(=O)c2nonc2N)ccc1OCc1ccc(Cl)cc1.Cl	-19
CCc1nnc(NC(=O)CSc2nc3ccccc3s2)s1	3.39
COc1ccccc1C(=O)Nc1c(C)cc(Br)cc1C	6.43
COc1ccc(Cc2nnc(-c3cccc(C)c3)o2)cc1OC	8.45
COCCNC(=O)C(c1ccncc1)N(C(=O)Cn1nnc2ccccc21)c1ccc(OC)cc1 (stereo not drawn)	10.3
O=c1cc(CN2CCN(c3cccc(Cl)c3)CC2)c2cc3c(cc2o1)CCCC3	12.4
COc1cc(NC(=O)CSc2nc(=O)n(CCN3CCOCC3)c3c2CCC3)cc(OC)c1	-2.97
COc1ccc(NC(=S)N2CCC(C(=O)c3ccc(OC)cc3)CC2)cc1	5.51
CC(=O)c1ccc(N2CCN(C(=O)C3CCN(S(=O)(=O)Cc4ccccc4)CC3)CC2)cc1	13.6
O=C(N/N=C\c1ccc(S(=O)(=O)[O-])o1)c1ccc2c(c1)OCO2.[Na+]	18.7
CC1CCC2(CC1)SCC(=O)N2c1ccccc1 (stereo not drawn)	7.42
O=c1c([N+](=O)[O-])c(N2CCCCCC2)c2ccccc2n1-c1ccccc1	16
N/C(=N\OC(=O)CCn1cccc(C(F)(F)F)c1=O)c1ccc(Cl)cc1	5.09
CCOc1cc(S(=O)(=O)n2c(C)nc3ccccc32)ccc1F	3.14
Cc1ccc(-n2[nH]c(C)c(/C=N/Nc3ccc([N+](=O)[O-])cc3[N+](=O)[O-])c2=O)cc1C	9.38
CCN(CC)CCNC(=O)C1c2cc(OC)c(OC)cc2C(=O)N2CCc3ccccc3C12 (stereo not drawn)	5.27
COc1ccc(CCNC(=O)c2ccc(N(C)S(=O)(=O)c3ccccc3)cc2)cc1	10.9

SMILES	hERG current change (%, negative = inhibition) at 1uM [%]
COCCCN1CC(=O)N2Cc3[nH]c4ccccc4c3C[C@H]2C1=O	16.4
COC(=O)c1c(-c2ccco2)csc1NC(=O)C1CC=CCC1C(=O)O (stereo not drawn)	2.04
CCSc1nc(-c2ccc(OC)cc2)ccc1C#N	5.36
COc1ccc(CCNC(=O)Cc2ccccc2)cc1OC	19.1
Cc1cc(Nc2cccc(O)c2)c2ccccc2n1.Cl	-14.9
CCC(C)NC(=O)c1[nH]c(C)c(C(=O)OC)c1C (stereo not drawn)	-0.184
COc1ccc(NC(C)C(=O)N/N=C/c2cc(Br)ccc2OC)cc1 (stereo not drawn)	14.9
CS(=O)(=O)N1N=C(c2ccco2)CC1c1ccc(Cl)cc1 (stereo not drawn)	6.82
O=C(NCCCN1CCN(Cc2ccccc2)CC1)c1nnc(Cc2c(F)cccc2Cl)o1	-39.4
CC(=O)c1cccc(NC(=O)C(C)OC(=O)c2ccc3ncsc3c2)c1 (stereo not drawn)	2.7
CCCCn1c(SCC(N)=O)nc2ccc(N3CCOCC3)cc2c1=O	-16.9
CC(OC(=O)CN(C)S(=O)(=O)c1ccc(Cl)cc1)C(=O)Nc1cccc(Cl)c1 (stereo not drawn)	9.88
Cc1ccc(C(=O)NCC(=O)NCC(=O)OCC(=O)c2ccc([N+](=O)[O-])cc2)cc1	11.1
COc1cc(C2Nc3cccc4cccc(c34)N2)cc(OC)c1OC(C)=O	6.81
CCOc1ccc(C(=O)Nc2ccc(CN3CCOCC3)cc2)cc1Cl	-14.2
CC(OC(=O)c1c[nH]c2ccccc12)C(=O)N1CCCC1 (stereo not drawn)	12.9
O=C(Nc1c(F)cccc1F)C1CCN(C(=O)c2cccs2)CC1	13.1
COc1cccc(OC)c1C(=O)Nc1ccc(N2CCN(S(C)(=O)=O)CC2)cc1	8.42
Cc1ccc(-n2c(=O)[nH]cc(C(=O)Nc3ccc4c(c3)OCO4)c2=O)cc1C	-2.26
O=C(O)C1C2CCC(O2)C1C(=O)Nc1ccc(OC(F)F)cc1 (stereo not drawn)	12
COc1ccc(-n2c(=S)[nH]c3c(oc4ccccc43)c2=O)cc1	12
